Assay results from article PMC6919601, “Identification of Plasmodium dipeptidyl aminopeptidase allosteric inhibitors by high throughput screening” (PLoS ONE, 2019).
About 230 (0.21%) of roughly 110,000 compounds showed an effect of 50% or more. Some of the results follow.

These compounds were tested against DPAP1 (Plasmodium falciparum, UniProt Q8IIJ9) (assay: primary screen, percent inhibition; read by cleavage of a fluorogenic dipeptide substrate; higher = more effect of the substance).
Set-up: species or system P. falciparum D10 trophozoite lysates; single well
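Further: 30 min substrate incubation versus DMSO and 10 µM JCP410 controls.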

Sequence of DPAP1 (Q8IIJ9 whole entry, looked up): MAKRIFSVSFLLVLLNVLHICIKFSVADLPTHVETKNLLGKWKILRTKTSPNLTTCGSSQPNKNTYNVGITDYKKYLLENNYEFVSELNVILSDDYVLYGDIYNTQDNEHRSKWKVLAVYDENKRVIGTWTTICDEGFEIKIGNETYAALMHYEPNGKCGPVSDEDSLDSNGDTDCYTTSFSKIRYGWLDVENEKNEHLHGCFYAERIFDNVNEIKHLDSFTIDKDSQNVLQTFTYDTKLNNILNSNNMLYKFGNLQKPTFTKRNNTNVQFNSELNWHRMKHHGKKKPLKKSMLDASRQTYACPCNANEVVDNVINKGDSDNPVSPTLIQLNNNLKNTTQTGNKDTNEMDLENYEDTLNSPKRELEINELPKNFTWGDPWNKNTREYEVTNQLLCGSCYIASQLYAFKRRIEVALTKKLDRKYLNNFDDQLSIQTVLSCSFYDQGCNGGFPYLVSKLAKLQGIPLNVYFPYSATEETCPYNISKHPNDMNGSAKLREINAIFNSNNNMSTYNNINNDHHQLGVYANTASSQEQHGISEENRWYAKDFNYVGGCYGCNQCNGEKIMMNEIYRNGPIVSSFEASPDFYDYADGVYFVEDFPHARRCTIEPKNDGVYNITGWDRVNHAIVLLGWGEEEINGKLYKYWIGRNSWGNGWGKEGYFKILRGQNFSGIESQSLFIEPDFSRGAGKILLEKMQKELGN

SMILES | % Inhibition @ 10 uM [%]
O=C(CCCOc1ccc(Cl)cc1Cl)NCc1ccc2c(c1)OCO2 | 0.231
O=C(c1ccccc1F)N1CCC(Cc2ccccc2)CC1 | 0.162
COc1ccc(-n2nnc(-c3nc(-c4cccs4)no3)c2N)cc1Cl | -1.04
Cc1ccc(/N=C/C2=C(O)CCCC2)c(C)c1 | -4.03
Cc1ccccc1CNC(=O)CSCc1ccccc1 | 0.746
COc1ccc(-c2nc3s/c(=C\c4c(F)cccc4Cl)c(=O)n3n2)cc1OC | 2.24
CCOC(=O)N1CCN(c2c(NCCCc3ccccc3)c(=O)c2=O)CC1 | -3.44
COc1nc(-c2ccccc2)nc(C)c1Cc1ccccc1 | -2.21
COc1ccc2nc(NC(=O)COC(=O)/C=C/c3ccco3)sc2c1 | -2.39
Cc1ccc(C)c(OCCCCCN2CCN(C)CC2)c1C | 4.57
CCC(C(=O)NCCC1=CCCCC1)n1nc(C)c2c(C)n(-c3ccc(C)cc3)nc2c1=O (stereo not drawn) | 2.31
COc1ccccc1/C=C1/S/C(=N\c2ccccc2)N(Cc2cccnc2)C1=O | 0.145
CCN1CCN(CCCNC(=O)C2CCCN(C(=O)c3cc4sccc4n3CC)C2)CC1 (stereo not drawn) | 1.16
Cc1ccc(-c2noc(CCCC(=O)N(C)C)n2)cc1 | 0.558
CN(Cc1c[nH]c2ccccc12)Cc1c[nH]c2ccccc12 | 0.605
COc1cccc(C2C(C(=O)N(C)C)=C(C)Nc3nc4ccccc4n32)c1OC (stereo not drawn) | -5.43
Fc1ccccc1/C=C1\CCCC2=C1Nc1ncnn1C2c1ccccc1F (stereo not drawn) | -3.37
CC(=O)NS(=O)(=O)c1ccc(NC(=O)COc2ccc3ccccc3c2Br)cc1 | -0.68
COc1ccccc1C1C(C#N)=C(N)N(c2nc[nH]n2)C2=C1C(=O)CC(C)(C)C2 (stereo not drawn) | 0.726
Cc1c(C(=O)NCCCN2CCN(C)CC2)oc2ccc3c(c12)C(O)CC1(CCCCCC1)O3 (stereo not drawn) | 4.64
COc1ccc(-c2noc(CC(=O)N3CCN(C)CC3)n2)cc1 | 1.13
CC(CCc1ccccc1)NCc1ccco1 (stereo not drawn) | -1.81
COc1ccc(C)cc1NC(=O)c1c(-c2ccccc2)noc1C | -3.24
O=C(/C=C/c1ccccc1)Nc1sc2c(c1C(=O)O)CCCC2 | -1.05
COC1Cc2ccccc2N(C(N)=O)c2ccccc21 (stereo not drawn) | -1.82

SMILES | % Inhibition @ 10 uM [%]
Cc1cc(C)nc(Nc2nc(C)c3cccc(C)c3n2)n1 | 2.3
CC1CCCCN1C(=O)c1ccc(C(=O)N2CCCCC2C)cc1 (stereo not drawn) | -6.27
CCN1CCCC1CNC(=O)C1c2cc(OC)c(OC)cc2C(=O)N(C)C1c1cccnc1 (stereo not drawn) | -3.9
CCOC(=O)C1CCCN(Cc2ccc(Cl)cc2Cl)C1 (stereo not drawn) | -1.86
COc1ccc(/C=C2/SC(Nc3ccccc3Cl)=NC2=O)c(OC)c1OC | -0.487
CC(=O)C1=C(O)C(=O)N(CCc2c[nH]c3ccccc23)C1c1cccnc1 (stereo not drawn) | -3.71
COc1ccc(/C=C2\CSC/C(=C/c3ccc(OC)cc3)C2=O)cc1 | -3.96
O=C1CNC(=O)/C1=C\c1ccc(O)cc1 | 2.17
CC12COc3ccc(Br)cc3C1c1sc(O)nc1SC2 (stereo not drawn) | 38.8
Cc1cc(NC(=O)c2cc3ccc4cccnc4c3[nH]2)no1 | 6.05
CC(=O)Nc1ccc(C2C(C#N)=C(N)Oc3[nH]nc(-c4ccc(C)cc4)c32)cc1 (stereo not drawn) | 1.03
Cc1onc(-c2ccccc2Cl)c1C(=O)NCc1ccc2c(c1)OCO2 | -6.92
Cc1nnc(SCc2nnnn2-c2ccccc2)nc1O | -3.23
O=C(Nc1nnc(-c2ccc(Cl)cc2Cl)s1)c1ccc(S(=O)(=O)N2CCCC2)cc1 | -0.769
N#C/C(=C\c1c(Oc2ccccc2)nc2ccccn2c1=O)C(=O)NCc1ccccc1 | -6.37
CN(Cc1ccccc1)S(=O)(=O)c1ccc(NC(=O)c2ccco2)cc1 | 4.25
CCOC(=O)c1cnc(SCC(N)=O)nc1N | 0.558
Cc1ccc(C(=O)N/C(=C\c2ccco2)C(=O)N2CC(C)OC(C)C2)cc1C (stereo not drawn) | -2.88
CC1CCN(S(=O)(=O)c2ccc3nc(-c4cccnc4)cc(C(=O)NCC4CCCO4)c3c2)CC1 (stereo not drawn) | -0.971
COc1ccccc1C(=O)Nc1ccccc1F | 7.48
COc1cccc(C(=O)Nc2nc(C(F)(F)F)c(-c3ccccn3)s2)c1 | -0.597
NC(=O)C1CCN(c2c(S(=O)(=O)c3ccccc3)cnc3ccc(F)cc23)CC1 | -5.03
O=C1CC(NCc2ccco2)C(=O)N1c1ccc(F)cc1 (stereo not drawn) | 3.24
CSCCC(C(=O)N1CCCCC1)N1C(=O)C2C3c4ccccc4C(c4ccccc43)C2C1=O (stereo not drawn) | -3.28
CC1=C(C#N)C(=O)N(C)C(=O)/C1=C\Nc1ccc(C)c(CN2C(=O)c3ccccc3C2=O)c1 | -0.941

SMILES | % Inhibition @ 10 uM [%]
COc1ccc(CCNS(=O)(=O)c2ccc(OC)c(Cl)c2Cl)cc1OC | 4.57
N#Cc1ccc(NC(=O)C2CC=CCC2C(=O)O)cc1 (stereo not drawn) | 1.62
O=C(O)C1CCCCC1C(=O)Nc1ccc(Oc2ccccc2)cc1 (stereo not drawn) | 2.05
Cc1cc(C)nc(NS(=O)(=O)c2ccc(Br)cc2)n1 | -6.52
Cc1nn(C)cc1NC(=O)Cn1nc(C(F)(F)F)cc1C1CC1 | -1.36
CCc1cccc(NC(=O)c2c(Cl)c(C)nn2C)c1 | -3.26
CCCCCCN1C(=O)C(O)=C(C(=O)c2ccccc2)C1c1ccc(O)c(OC)c1 (stereo not drawn) | 4.55
Cc1ccc(-c2nc(NC(=O)CCc3ccccc3)sc2C)cc1 | 0.685
Cc1ccc2c(c1)/C(=C1/SC(Nc3ccc(C)c(Cl)c3)=NC1=O)C(=O)N2 | -0.511
COc1ccc(C(=O)C2=C(O)C(=O)N(CCCN(C)C)C2c2cccc(Oc3ccccc3)c2)cc1 (stereo not drawn) | 2.17
COc1ccc(C(c2c(NC(C)=O)sc3c2CCCC3)N2CCN(CCO)CC2)cc1OC (stereo not drawn) | -5.41
O=C(CSc1nc[nH]n1)Nc1ccnc2ccccc12 | -4.78
CN1CCC(N(C)C2CCN(C)CC2)CC1 | -5.44
COc1cc(S(=O)(=O)N2CCN(Cc3ccc4c(c3)OCO4)CC2)c(OC)cc1Cl | -7.33
Cc1ccc(S(=O)(=O)N(CC(=O)NC(C)C)c2cc(Cl)ccc2C)cc1 | 1.1
COc1ccc(N(CC(=O)Nc2ccc(F)cc2)S(C)(=O)=O)cc1OC | -1.95
Cc1oc2ccc(O)c(CN(C)C3CCN(C)CC3)c2c1C(=O)NC1CCCC1 | 2.14
CCC(C(=O)NCc1ccccc1Cl)n1nc(C)c2c(C)n(-c3ccccc3)nc2c1=O (stereo not drawn) | -1.39
COCCCNC(=O)CNC(=S)N(Cc1cc(OC)c(OC)c(OC)c1)C1CCCC1 | -0.406
Cc1ccc(NC(=O)c2nc3ccccc3s2)cc1 | 5.61
CCOC(=O)c1ccc(CNC(=O)Cn2c(-c3nonc3N)nc3ccccc32)o1 | -2.05
CCOC(=O)C1CCN(Cc2ccc(Cl)cc2Cl)CC1 | 4.73
O=C(NCc1ccc(Cl)cc1)C(=O)NCC1CCCO1 (stereo not drawn) | -1.6
CCCN1CCN(CCCNC(=O)CN2C(=O)CSc3c2c(C)nn3-c2ccccc2)CC1 | 2.99
CCOC(=O)N1CCN(CC(c2ccccc2)c2ccccc2)CC1 | 1.08

SMILES | % Inhibition @ 10 uM [%]
Cc1nn(-c2ccccc2)c(C)c1NC(=O)Cc1cccs1 | -0.999
COc1ccc(CN2CCN(Cc3cccc(OC)c3)CC2)cc1 | -1.37
COc1ccc(NC(=O)c2ccc(C3SCC(=O)N3CCc3ccccc3)cc2)cc1OC (stereo not drawn) | 0.145
O=C(O)CCC(=O)Nc1ccc(N2CCN(c3cccc(Cl)c3Cl)CC2)cc1 | 0.83
Cc1ccc(S(=O)(=O)N(C)CC(=O)Nc2ccccc2C(N)=O)cc1 | -0.872
CCOc1cccc(C(=O)C2=C(O)C(=O)N(Cc3ccncc3)C2c2ccccc2)c1 (stereo not drawn) | 1.93
COc1ccc(C2N[C@H](C(=O)O)CS2)c(OC)c1 (stereo partly drawn) | 0.132
COc1cc(C2C3=C(O)CC(C)(C)CC3=NC(C)=C2C(=O)N2CCCCC2)cc(Cl)c1O (stereo not drawn) | -2.64
COC(=O)c1sccc1NC(=S)N1CCc2ccccc2C1 | 8.44
CNC(=O)C(C)n1ccc2cc(S(=O)(=O)N3CCCC3)ccc21 (stereo not drawn) | 2.82
OC1CCCN(Cc2ccc(F)c(Br)c2)C1 (stereo not drawn) | 3.9
COc1ccc(CNC(=O)c2cc(=O)c3ccc(C)c(C)c3o2)cc1 | -13.1
O=C(c1ccncc1)C12CN3CN(CN(C3)C1)C2 | 0.878
COc1ccc(CCNC(=O)c2cncc(NS(=O)(=O)c3ccc(C)cc3)c2)cc1OC | 2.01
O=C(Nc1nc2ccccc2s1)C1CCCC1 | -4.86
CC(C)CC(=O)NC1(C(F)(F)F)NC(=O)N(CC(C)C)C1=O (stereo not drawn) | 0.221
COc1ccc(CCNCc2c(C(=O)O)c(C)n(Cc3cc(C)ccc3C)c2C)c(OC)c1OC | -5.49
COc1ccc(F)cc1CN1CCN(c2ncnc3sc4c(c23)CCCC4)CC1 | 0.884
OC1CCN(Cc2ccc(C(F)(F)F)cc2)CC1 | 3.9
O=C(O)CC(Cc1ccc(Cl)cc1)C(=O)Nc1ccccc1 (stereo not drawn) | -1.98
COc1cc(NC(=O)c2cc3ccccc3o2)c(OC)cc1Cl | -2.73
O=C(Cc1cccs1)Nc1cccc(/C=C/C(=O)c2ccccc2)c1 | -4.75
O=S(=O)(c1ccc(-c2csc(Nc3cccc4ccccc34)n2)cc1)N1CCOCC1 | -4.89
COC(=O)c1cc(-c2cccs2)nc2ccc(Br)cc12 | 2.41
